From PubChem BioAssay AID588855 (National Center for Advancing Translational Sciences (NCATS), 2011)
The campaign covered roughly 410,000 compounds. About 5,000 (1.2%) were called active. This list was built around the results that the source calls inconclusive (neither active nor inactive); the mix of calls is not that of the screen. The call rests on the fitted dose curve; in most records, active means well fitted inhibition curve with a large enough effect; inconclusive means small, poorly fitted or top-dose-only effect; inactive means no such curve, though single readings can be large or run the other way. Potencies of inconclusive entries are doubtful fits and often do not repeat.

Assay: qHTS for Inhibitors of TGF-b; further: nearly all actives have a fitted effect of over 65% in size
Conditions: HepG2 CAGA-GFP TGF-b/SMAD3 reporter, GFP fluorescence, 18 h, TGF-beta stimulated, 500 pg/mL final; series mostly up to 46.1 µM
In short: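 Read-out: total well GFP (ex488/em500-530) summed from mean per-cell fluorescence. Cells: HEPG2 CAGA-GFP, 1% FBS DMEM, 18 h at 37 degrees C with 500 pg/mL final TGF-beta. Unstimulated wells served as the full-inhibition control; stimulated DMSO wells = 0%.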
Potency means the concentration at half of the fitted maximal effect; tags describe the fitted curve by direction and shape.

SMILES	Potency
N#C/C(=C/c1cccc(C(F)(F)F)c1)c1nc(CCN2C(=O)c3ccccc3C2=O)cs1	inconclusive: 35.5 µM [inhibitor, partial curve, poor fit]
CCc1cc(=O)oc2cc(C)cc(OCC(=O)N3CCC(C(=O)NC(C)C)(c4ccccc4)CC3)c12	inactive
CN(Cc1ccccc1)CC(O)COc1ccc(CNCc2ccc(Cl)s2)cc1 (centres undefined)	active: 12.6 µM
O=C(NC(=S)N1CCCCC1)c1cccnc1	inconclusive: 6.31 µM [inhibitor, partial curve, poor fit]
COc1ccc(C(=O)Nc2nc3c(s2)CCCC3)cc1Cl	inconclusive: 0.794 µM [inhibitor, partial curve, poor fit]
CN(CCOc1ccccc1)CC(=O)Nc1ccc(S(=O)(=O)N2CCCC2)cc1	inactive
Cc1cccc(N2CCN(C(=O)c3ccc4c(c3)N(Cc3cccc(Cl)c3)C(=O)c3ccccc3S4=O)CC2C)c1 (centres undefined)	inconclusive: 2.24 µM [inhibitor, full curve, poor fit]
COc1cc(NC(=O)COC(=O)CSc2ccc3ccccc3c2)c(C)cc1[N+](=O)[O-]	inconclusive: 5.62 µM [inhibitor, single point]
CCCCc1nn2c(=O)cc(COC(=O)C3CCCCC3)nc2s1	inconclusive: 0.112 µM [inhibitor, full curve, poor fit]
COc1cc(CCC(=O)Nc2ccc(Br)c(C(F)(F)F)c2)cc(OC)c1OC	active: 15.8 µM
O=C(CSc1nnc(CCc2ccccc2)n1-c1ccc(Cl)cc1)c1ccccc1	inconclusive: 35.5 µM [inhibitor, single point]
O=C(CSc1n[nH]c(-c2ccc(Cl)cc2Cl)n1)Nc1ccccn1	inactive
CCN(CC)CCCNC(=O)C1CCN(C(=O)c2cc3sccc3n2Cc2ccc(F)cc2)CC1	inconclusive: 0.447 µM [inhibitor, full curve, poor fit]
CC1CC(C)CN(S(=O)(=O)c2ccc3c(c2)oc(=O)n3CC(=O)N2CCOCC2)C1 (centres undefined)	inconclusive: 5.01 µM [inhibitor, single point]
COc1ccc(OC)c(NC(=O)c2cc(S(=O)(=O)NCCc3ccc(Cl)cc3)ccc2F)c1	inconclusive: 10 µM [inhibitor, partial curve]
O=C(Cc1cccs1)N=Nc1c(O)[nH]c2ccc(Br)cc12	inactive
C1CCN(CCCNC2C3CC4CC(C3)CC2C4)C1 (centres undefined)	inactive
O=C(C1CCC1)N1CCc2cc(S(=O)(=O)N3CCN(c4ccccn4)CC3)ccc21	inactive
Cc1ccc2c3c1C1(C(=O)N3C(C)(C)CC2C)C(C#N)=C(N)Oc2cc(O)ccc21 (centres undefined)	inconclusive: 35.5 µM [inhibitor, single point]
